Measured values as given in publication PMC4336329 (PLoS ONE, 2015).
Among all 310,000 compounds or so, about 14,000 (4.5%) showed an effect of 50% or more. Effects have a minus sign here. The list shows a part of the results.

The molecules below were run against human ether-à-go-go-related gene (hERG) potassium channel (human, UniProt Q12809) (assay: primary screen, population patch clamp on CHO cells stably expressing hERG).
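Further: peak tail current of the secondary pulse compared with the same well before compound.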

human ether-à-go-go-related gene (hERG) potassium channel, sequence (Q12809 whole entry, looked up): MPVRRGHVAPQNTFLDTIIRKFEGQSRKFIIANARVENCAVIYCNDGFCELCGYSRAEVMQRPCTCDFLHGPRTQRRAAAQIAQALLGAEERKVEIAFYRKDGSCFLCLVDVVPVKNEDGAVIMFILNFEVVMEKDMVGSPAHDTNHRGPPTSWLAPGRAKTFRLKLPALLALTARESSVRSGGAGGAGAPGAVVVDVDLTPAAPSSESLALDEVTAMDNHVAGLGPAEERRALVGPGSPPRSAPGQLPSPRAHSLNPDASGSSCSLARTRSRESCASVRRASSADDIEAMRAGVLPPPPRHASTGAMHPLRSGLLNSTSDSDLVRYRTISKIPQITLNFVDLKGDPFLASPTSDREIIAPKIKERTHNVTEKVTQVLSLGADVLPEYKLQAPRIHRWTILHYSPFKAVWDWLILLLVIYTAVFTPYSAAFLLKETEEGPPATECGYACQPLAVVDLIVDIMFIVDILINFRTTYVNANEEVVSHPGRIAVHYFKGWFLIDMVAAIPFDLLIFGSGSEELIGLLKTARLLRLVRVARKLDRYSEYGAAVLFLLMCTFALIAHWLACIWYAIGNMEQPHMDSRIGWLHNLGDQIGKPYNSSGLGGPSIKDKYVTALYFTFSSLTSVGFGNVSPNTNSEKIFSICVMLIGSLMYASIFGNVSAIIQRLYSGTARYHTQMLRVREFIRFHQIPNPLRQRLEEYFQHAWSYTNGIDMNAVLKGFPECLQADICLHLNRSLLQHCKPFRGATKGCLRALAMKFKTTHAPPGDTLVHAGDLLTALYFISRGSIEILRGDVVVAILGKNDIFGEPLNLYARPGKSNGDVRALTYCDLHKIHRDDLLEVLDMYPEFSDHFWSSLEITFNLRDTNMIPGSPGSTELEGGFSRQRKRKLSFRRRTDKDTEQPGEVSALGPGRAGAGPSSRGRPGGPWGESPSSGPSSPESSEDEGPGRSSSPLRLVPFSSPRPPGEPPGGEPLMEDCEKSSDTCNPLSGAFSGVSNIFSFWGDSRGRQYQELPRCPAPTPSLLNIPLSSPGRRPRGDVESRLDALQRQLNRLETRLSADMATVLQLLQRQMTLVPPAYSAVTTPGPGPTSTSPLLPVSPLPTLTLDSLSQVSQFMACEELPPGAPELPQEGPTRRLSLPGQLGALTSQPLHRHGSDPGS

Row | Structure (SMILES) | hERG current change (%, negative = inhibition) at 10uM [%]
1 | Cc1cccc(N(CC(=O)Nc2ccccc2-c2ccccc2)S(=O)(=O)c2ccccc2)c1C | 6.18
2 | CCc1nnc(NC(=O)c2cc(-c3ccccn3)nc3ccccc23)s1 | 9.25
3 | O=C1c2ccccc2C(=O)N1c1ncn[nH]1 | 11.3
4 | COc1ccc(/C(C)=N/NC(=O)c2cccc(S(=O)(=O)N3CCCC3)c2)c(O)c1 | 16.4
5 | Nc1cc(Cl)ccc1C(=O)OCC(=O)NC1CCS(=O)(=O)C1 (stereo not shown) | -11.4
6 | CCOc1ccccc1NC(=O)COn1nnc2ccccc21 | 12.4
7 | COc1ccc(C2=NN(c3nc(-c4ccccc4)c(CC(=O)O)s3)C(c3ccco3)C2)cc1 (stereo not shown) | 9.4
8 | CC1(C(=O)NC2CCCC2)CCC(=O)N1Cc1ccccc1Cl (stereo not shown) | 1.96
9 | CCOc1ccc(NC(=O)c2ccc(NC(=O)CSc3nc4ccccc4c(=O)[nH]3)cc2)cc1 | 14.7
10 | COCC(C)n1c(SCC(=O)NNC(=O)c2ccccc2)nc2ccccc2c1=O (stereo not shown) | 5.92
11 | CC(C)(C)c1nnc2sc(SCC(=O)c3cccs3)nn2c1=O | -17.2
12 | CC(C)CCNC(=O)CCCn1c(=O)[nH]c2ccc(Br)cc2c1=O | 6.03
13 | O=C(CSc1nnc(NC(=O)c2ccccc2)s1)NCC1CCCO1 (stereo not shown) | 6.73
14 | Fc1cccc2sc(N3CCCC3)nc12 | -7.3
15 | COCCCn1c(N)c(-c2nc3ccccc3n2C)c2nc3ccccc3nc21 | -30.9
16 | Cc1ccc(C)c(NC(=O)COc2cccc3c2CCN(Cc2ccccc2)C3=O)c1 | -10.1
17 | CCOc1ccc(N(CC(=O)Nc2c(C)cccc2C)S(=O)(=O)c2c(C)[nH]c(=O)[nH]c2=O)cc1 | 8.2
18 | NC(=O)C1CCN(S(=O)(=O)c2ccc3c(c2)OCCO3)CC1 | 3.65
19 | CC(C)c1ccc(/C=C/C2=NNC(=O)CC2)cc1 | -19.2
20 | COc1cccc(CNc2ncn[nH]2)c1OCc1ccccc1F | 4.37
21 | COc1ccc(S(=O)(=O)N2CCC3(CC2)OCCO3)cc1 | -1.84
22 | CCN(Cc1ccc(N(C)C)cc1)C(C)C(=O)Nc1ccc(S(=O)(=O)N2CCCC2)cc1 (stereo not shown) | 6.37

Row | Structure (SMILES) | hERG current change (%, negative = inhibition) at 10uM [%]
23 | CN1CCC(=NNC(=O)C(=O)Nc2ccccc2F)CC1 | 9.4
24 | Cc1ccc(NC(=O)COC(=O)CNC(=O)C2CCCCC2)c(Br)c1 | 20
25 | CC1(C)C(CSc2nc3ccccc3[nH]2)C1(Cl)Cl (stereo not shown) | -15.2
26 | O=C(Nc1ccccc1)N1CCN(C(=O)Nc2ccccc2)CC1 | 1.5
27 | Cc1ccc(-c2c[nH]c(=S)n2-c2ccccc2F)cc1 | 5.84
28 | O=C(OCCNC(=O)c1cc2ccccc2oc1=O)c1cccnc1 | -13.7
29 | O=C(Nc1cccc(F)c1)C1CCN(C(=O)NCc2ccccc2)CC1 | -2.77
30 | CN(CC(=O)N1CCN(c2cccc(Cl)c2)CC1)S(=O)(=O)c1cnc[nH]1 | -11.6
31 | N/C(=N\OC(=O)C12CC3CC(CC(C3)C1)C2)c1ccccc1 | -11.1
32 | CCOC(=O)CSc1nc(C2CC2)cc(-c2ccc(F)cc2)c1C#N | 7.37
33 | COc1cc(-n2nnnc2SC)c(OC)cc1Cl | 28.7
34 | O=C(c1cc2cc(F)ccc2[nH]1)N1CCN(c2cccc(Cl)c2)CC1 | 13.5
35 | Cc1ccc(Cl)cc1NC(=S)N(Cc1ccccc1)Cc1cccnc1 | -22.8
36 | O=C(O)CSc1nc(C(F)(F)F)cc(=O)n1-c1ccccc1 | 7.51
37 | O=C(COC(=O)CC12CC3CC(CC(Br)(C3)C1)C2)NC(=O)NCc1ccco1 | 12.1
38 | Cc1ccc(NC(=O)COC(=O)CCn2c(C)csc2=O)cc1S(=O)(=O)N1CCOCC1 | -18.3
39 | Cc1nnc(N/N=C/c2ccc(Br)cc2)n1N.Cl | -16
40 | NC(Cc1ccc(O)c([N+](=O)[O-])c1)C(=O)O (stereo not shown) | 15.2
41 | COc1ccc(CCNC(=O)c2ccc3nc(N4CCOCC4)sc3c2)cc1OC | -10.6
42 | CC(C)Cc1c(O)nc(SCCN2CCOCC2)[nH]c1=O.Cl | 31.9
43 | O=C(O)/C=C/C(=O)Nc1ccc(Oc2ccccc2)cc1 | 15.8
44 | Cc1ccc(C(=O)N/C(=C/c2ccco2)C(=O)NCCCn2ccnc2)cc1 | -64.7

Row | Structure (SMILES) | hERG current change (%, negative = inhibition) at 10uM [%]
45 | COc1ccc(-n2c(SCC(=O)Nc3ccccc3)nnc2-c2ccc(NS(=O)(=O)c3ccc(C)cc3)cc2)cc1 | 3.59
46 | CCOC(=O)CSc1nc2c(sc3ccccc32)c(=O)n1CCCN1CCOCC1 | -65.9
47 | COc1cc2c(cc1OC)-c1cc3ccc4c(c3c[n+]1CC2)OCO4 | 12.6
48 | Cc1ccccc1Nc1nnc(SCC(=O)c2c(N)n(C)c(=O)n(C)c2=O)s1 | 5.14
49 | N#C/C(=C\Nc1ccc2c(c1)OCCO2)C(=O)NCc1ccco1 | -19.1
50 | OCCCc1nc2n(n1)C(c1cccs1)C=C(c1ccc(Br)cc1)N2 (stereo not shown) | -26.1
51 | C[C@H](NC(=O)c1nc[nH]c1C(=O)N1CCN(C(=O)OC(C)(C)C)CC1)c1ccccc1 | 12.4
52 | CC1CN(C(=O)CNC(=O)Cc2cccc3ccccc23)CC(C)O1 (stereo not shown) | -0.664
53 | CCSC1=NCCN1C(=O)c1ccc(S(=O)(=O)N(CC)CC)cc1 | 1.36
54 | CN(CC(=O)Nc1ccc(F)cc1)C(=O)Cn1cnc2ccc(Cl)cc2c1=O | -7.87
55 | CCCCNC(=O)c1cccc(C(=O)NCCCC)c1 | -6.79
56 | COc1ccc(-n2c(SCc3ccccn3)nc3c(c2=O)SCC3)cc1OC | -2.16
57 | CCOCCc1nn2c(=O)cc(CSCC(=O)Nc3cccc(C)c3C)nc2s1 | 2.23
58 | CCOC(=O)c1c(C)[nH]c(C(=O)COC(=O)c2ccc(N3CCCC3=O)cc2)c1C | 4.32
59 | COc1ccc([C@@H]2[C@@H]3C(=O)N(C(C)(C)C)C(=O)[C@@H]3[C@]3(Cc4ccccc4)C(=O)N(c4ccc(C)cc4)C(=O)N23)cc1 | 2.04
60 | O=C(CCn1c(=O)oc2ccc(Cl)cc21)N1CCN(c2ccccc2)CC1 | -33.8
61 | CN(CC(=O)Nc1ccc(F)cc1)C(=O)COc1ccccc1Cc1ccccc1 | -4.17
62 | O=C1c2ccccc2C(Nc2cccc(C(F)(F)F)c2)N1Cc1ccco1 (stereo not shown) | 6.63
63 | CCOC(=O)CC(NC(=O)Cc1ccc(F)cc1)c1ccccc1Cl (stereo not shown) | -1.39
64 | CCCc1nc(Nc2nc3ccccc3o2)nc(C)c1C(=O)OCC | -18.3
65 | CCOC(=O)CSc1nncc2ccc(OC)c(OC)c12 | 8.51
66 | CCN1CCN(c2ccc(S(=O)(=O)N3CCOCC3)cc2NC(=O)c2ccccc2OC(F)F)CC1 | -42.5

Row | Structure (SMILES) | hERG current change (%, negative = inhibition) at 10uM [%]
67 | Cc1c(C(=O)O)oc2ccc(S(=O)(=O)NCCC3=CCCCC3)cc12 | 0.629
68 | CSc1nnc([C@@H](NC(=O)OC(C)(C)C)C(C)C)o1 | -13.6
69 | CCOC(=O)CSc1nc2sc3c(c2c(=O)n1CC)CC(C)(C)OC3 | -23.4
70 | C/C(=N/NC(=O)c1ccco1)c1ccc(Br)s1 | 8.28
71 | Cc1csc(NC(=O)Cc2ccccc2[N+](=O)[O-])n1 | 8.85
72 | CCn1c(SCC(=O)Nc2nnc(C)s2)nnc1C(C)NC(=O)c1ccccc1 (stereo not shown) | 5.07
73 | Cc1ccc(C(=O)c2cc3c(cc2[N+](=O)[O-])OCCO3)cc1 | -9.5
74 | c1cc2[nH]snc2c2nc(C3CC3)nc12 | -29.3
75 | CC(=O)c1ccc(NCC(=O)N2CCN(S(=O)(=O)c3ccccc3)CC2)cc1 | -5.61
76 | CCc1ccccc1NC(=O)Nc1cccn(Cc2ccc(F)cc2)c1=O | 0.961
77 | CCc1ccc(Nc2ncc3c(n2)CC(c2ccco2)CC3=O)cc1 (stereo not shown) | -6.37
78 | Nc1nonc1C(=O)N/N=C/c1cccc([N+](=O)[O-])c1 | -13.7
79 | Cc1cc(C)cc(N(CC(=O)Nc2ccc(-c3nc4ccc(C)cc4s3)cc2)S(C)(=O)=O)c1 | -4.51
80 | Cc1cc(C)c2cc(C=O)c(Cl)nc2c1 | 6.24
81 | CCc1ccc2c(c1)C(c1ccc(N3CCOCC3)cc1)=NNC(c1ccncc1)=N2 | 12.7
82 | COC(=O)c1c(C)oc(C)c1S(=O)(=O)N1CCCC1 | -0.15
83 | CC1=C/C(=N\OS(=O)(=O)c2ccccc2)C(C)=CC1=O | -9.37
84 | COC(=O)C(C)NC(=O)C12CC3CC(CC(C3)C1)C2 (stereo not shown) | 18.2
85 | CNc1ccc(Br)cc(C(=O)/C=C/c2ccc(OC)cc2)c1=O | 4.96
86 | CC1=CC(C)C(C(=O)O)C(C(=O)Nc2cccnc2)C1 (stereo not shown) | 28.7
87 | CN(c1ccccc1)c1nc(N)c([N+](=O)[O-])c(NCCO)n1 | 11
88 | CCc1ccc(NC(=O)CC2C(=O)NCCN2C(=O)c2ccc(F)cc2)cc1 (stereo not shown) | -55.4
